pIC50: −log10 of the molar value. IC50 is the fitted dose that halves viability relative to control wells, and lower means more sensitive; a fit beyond the top or the lowest dose is shown as a bound at that dose. AUC is the area under the same curve over the 256-fold range up to the top dose, as a fraction: 1 means no effect, lower means more sensitive. For some assays here: A top dose marked as inferred comes from the curve model; the source does not state it. For some assays here: Where an entry number is given, a second screen of the drug exists; the two often differ.
How the values were obtained:
Assay in all cases: Viability of human cancer cell lines after 72 h of drug (GDSC screen)
Epothilone B = compound: C/C(=C\c1csc(C)n1)[C@@H]1C[C@@H]2O[C@]2(C)CCC[C@H](C)[C@H](O)[C@@H](C)C(=O)C(C)(C)[C@@H](O)CC(=O)O1 [Epothilone B]; conditions: top dose 0.032 µM; top dose inferred
Method: (§1)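 Human cancer cell lines in 384-well plates, medium with 10% serum, drug for 72 h over a 256-fold dose range (nine 2-fold or five 4-fold steps up to the top dose). Adherent lines were fixed and stained with the nucleic acid dye Syto60, suspension lines read with resazurin; signal relative to control wells, capped at 0 and 100%. One two-parameter sigmoid per drug and line, fitted in a mixed model over all curves with the slope shared within a line.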

PHA-793887 = compound: CC(C)CC(=O)Nc1n[nH]c2c1CN(C(=O)C1CCN(C)CC1)C2(C)C [PHA-793887]; conditions: top dose 10.24 µM
Method: as §1

PLX4720 = compound: CCCS(=O)(=O)Nc1ccc(F)c(C(=O)c2c[nH]c3ncc(Cl)cc23)c1F [PLX4720]; conditions: top dose 10 µM
Method: as §1

Y-39983 = compound: C[C@@H](N)c1ccc(C(=O)Nc2ccnc3[nH]ccc23)cc1 [Y-39983]; conditions: top dose 20 µM; top dose inferred
Method: as §1

TPCA-1 = compound: NC(=O)Nc1sc(-c2ccc(F)cc2)cc1C(N)=O [TPCA-1]; conditions: top dose 20 µM
Method: as §1

[1] = screen: GDSC drug entry 1371, top dose inferred

Cell Line | AUC (Epothilone B) | pIC50 (Epothilone B) | AUC (PHA-793887) | pIC50 (PHA-793887) | AUC (PLX4720; screen: GDSC drug entry 1036) | pIC50 (PLX4720; screen: GDSC drug entry 1036) | AUC (PLX4720; [1]) | pIC50 (PLX4720; [1]) | AUC (Y-39983) | pIC50 (Y-39983) | AUC (TPCA-1) | pIC50 (TPCA-1)
NCI-H460 (large cell lung carcinoma, adherent) | 0.223 | 9.46 | 0.99 | < 4.99 | 0.982 | < 5.00 | 0.989 | < 5.00 | 0.966 | < 4.70 | 0.906 | < 4.70
NCI-H520 (lung squamous cell carcinoma, adherent) | 0.571 | 8.50 | 0.607 | 5.90 | 0.986 | < 5.00 | 0.986 | < 5.00 | 0.915 | < 4.70 | 0.693 | 5.35
NCI-H522 (lung adenocarcinoma, adherent) | 0.356 | 9.13 | 0.979 | < 4.99 | 0.962 | < 5.00 | 0.972 | < 5.00 | 0.901 | < 4.70 | 0.896 | < 4.70
NCI-H596 (lung adenocarcinoma, adherent) | 0.751 | 7.87 | 0.853 | < 4.99 | 0.962 | < 5.00 | 0.98 | < 5.00 | 0.91 | < 4.70 | 0.84 | < 4.70
NCI-H647 (non-small cell lung carcinoma, adherent) | 0.593 | 8.44 | 0.438 | 6.37 | 0.963 | < 5.00 | 0.53 | 6.12 | 0.883 | < 4.70 | 0.849 | 4.79
NCI-H650 (lung adenocarcinoma, adherent) | 0.812 | 7.71 | 0.886 | < 4.99 | 0.928 | < 5.00 | 0.98 | < 5.00 | 0.928 | < 4.70 | 0.901 | < 4.70
NCI-H661 (large cell lung carcinoma, adherent) | 0.755 | 7.89 | 0.802 | 5.20 | 0.911 | < 5.00 | 0.98 | < 5.00 | 0.98 | < 4.70 | 0.934 | < 4.70
NCI-H727 (lung carcinoid, adherent) | 0.495 | 8.72 | 0.929 | < 4.99 | 0.838 | < 5.00 | 0.97 | < 5.00 | 0.951 | < 4.70 | 0.865 | < 4.70
NCI-H810 (large cell lung carcinoma, adherent) | 0.315 | 9.21 | 0.43 | 6.38 | 0.985 | < 5.00 | 0.92 | < 5.00 | 0.929 | < 4.70 | 0.856 | 4.82
NCI-H838 (lung adenocarcinoma, adherent) | 0.755 | 7.95 | 0.915 | < 4.99 | 0.985 | < 5.00 | 0.985 | < 5.00 | 0.967 | < 4.70 | 0.923 | < 4.70
NCI-H841 (small cell lung carcinoma, adherent) | 0.844 | 7.64 | 0.961 | < 4.99 | 0.975 | < 5.00 | 0.986 | < 5.00 | 0.957 | < 4.70 | 0.93 | < 4.70
NCI-H1048 (small cell lung carcinoma, adherent) | 0.662 | 8.27 | 0.853 | 5.17 | 0.947 | < 5.00 | 0.983 | < 5.00 | 0.957 | < 4.70 | 0.445 | 6.05
NCI-H1435 (lung adenocarcinoma, semi-adherent) | 0.828 | 7.77 | 0.993 | < 4.99 | 0.981 | < 5.00 | 0.99 | < 5.00 | 0.985 | < 4.70 | 0.948 | < 4.70
NCI-H1437 (lung adenocarcinoma, adherent) | 0.409 | 8.95 | 0.616 | 5.87 | 0.976 | < 5.00 | 0.983 | < 5.00 | 0.973 | < 4.70 | 0.931 | < 4.70
NCI-H1563 (lung adenocarcinoma, adherent) | 0.903 | < 7.49 | 0.917 | < 4.99 | 0.979 | < 5.00 | 0.974 | < 5.00 | 0.971 | < 4.70 | 0.765 | 5.06
NCI-H1568 (lung adenocarcinoma, adherent) | 0.495 | 8.71 | 0.907 | < 4.99 | 0.97 | < 5.00 | 0.945 | < 5.00 | 0.974 | < 4.70 | 0.914 | < 4.70
NCI-H1573 (lung adenocarcinoma, adherent) | 0.923 | < 7.49 | 0.983 | < 4.99 |  |  | 0.989 | < 5.00 | 0.983 | < 4.70 | 0.945 | < 4.70

Cell Line | AUC (Epothilone B) | pIC50 (Epothilone B) | AUC (PHA-793887) | pIC50 (PHA-793887) | AUC (PLX4720; screen: GDSC drug entry 1036) | pIC50 (PLX4720; screen: GDSC drug entry 1036) | AUC (PLX4720; [1]) | pIC50 (PLX4720; [1]) | AUC (Y-39983) | pIC50 (Y-39983) | AUC (TPCA-1) | pIC50 (TPCA-1)
NCI-H1623 (lung adenocarcinoma, adherent) | 0.79 | 7.75 | 0.961 | < 4.99 | 0.985 | < 5.00 | 0.983 | < 5.00 | 0.979 | < 4.70 | 0.945 | < 4.70
NCI-H1651 (lung adenocarcinoma, adherent) | 0.607 | 8.39 | 0.987 | < 4.99 | 0.977 | < 5.00 | 0.979 | < 5.00 | 0.984 | < 4.70 | 0.982 | < 4.70
NCI-H1688 (small cell lung carcinoma, adherent) | 0.86 | 7.50 | 0.928 | < 4.99 | 0.962 | < 5.00 | 0.984 | < 5.00 | 0.95 | < 4.70 | 0.688 | 5.35
NCI-H1693 (lung adenocarcinoma, adherent) | 0.89 | < 7.49 | 0.955 | < 4.99 | 0.957 | < 5.00 | 0.955 | < 5.00 | 0.976 | < 4.70 | 0.802 | 4.74
NCI-H1703 (lung adenocarcinoma, adherent) | 0.672 | 8.17 | 0.835 | 5.05 | 0.981 | < 5.00 | 0.974 | < 5.00 | 0.977 | < 4.70 | 0.926 | < 4.70
NCI-H1755 (lung adenocarcinoma, adherent) | 0.921 | < 7.49 | 0.984 | < 4.99 | 0.913 | < 5.00 | 0.954 | < 5.00 | 0.984 | < 4.70 | 0.458 | 6.03
NCI-H1781 (lung adenocarcinoma, adherent) | 0.795 | 7.83 | 0.989 | < 4.99 | 0.989 | < 5.00 | 0.881 | < 5.00 | 0.954 | < 4.70 | 0.956 | < 4.70
NCI-H1792 (lung adenocarcinoma, adherent) | 0.696 | 8.18 | 0.98 | < 4.99 | 0.985 | < 5.00 | 0.962 | < 5.00 | 0.963 | < 4.70 | 0.862 | 4.84
NCI-H1793 (lung adenocarcinoma, adherent) | 0.802 | 7.62 | 0.982 | < 4.99 |  |  | 0.968 | < 5.00 | 0.98 | < 4.70 | 0.963 | < 4.70
NCI-H1915 (large cell lung carcinoma, adherent) | 0.664 | 8.24 | 0.776 | 5.38 |  |  | 0.965 | < 5.00 | 0.878 | < 4.70 | 0.908 | < 4.70
NCI-H1944 (lung adenocarcinoma, adherent) | 0.529 | 8.62 | 0.544 | 6.07 | 0.968 | < 5.00 | 0.984 | < 5.00 | 0.918 | < 4.70 | 0.673 | 5.40
NCI-H1993 (lung adenocarcinoma, adherent) | 0.887 | < 7.49 | 0.92 | < 4.99 | 0.95 | < 5.00 | 0.973 | < 5.00 | 0.961 | < 4.70 | 0.92 | < 4.70
NCI-H2009 (lung adenocarcinoma, adherent) | 0.366 | 9.08 | 0.986 | < 4.99 | 0.952 | < 5.00 | 0.965 | < 5.00 | 0.982 | < 4.70 | 0.932 | < 4.70
NCI-H2029 (small cell lung carcinoma, adherent) | 0.989 | < 7.49 | 0.927 | < 4.99 |  |  | 0.992 | < 5.00 | 0.981 | < 4.70 | 0.949 | < 4.70
NCI-H2030 (lung adenocarcinoma, adherent) | 0.367 | 9.09 | 0.783 | 5.31 | 0.982 | < 5.00 | 0.934 | < 5.00 | 0.938 | < 4.70 | 0.794 | 4.97
NCI-H2052 (mesothelioma, adherent) | 0.941 | < 7.49 | 0.971 | < 4.99 | 0.982 | < 5.00 |  |  | 0.966 | < 4.70 | 0.954 | < 4.70
NCI-H2085 (lung adenocarcinoma, adherent) | 0.701 | 8.11 | 0.936 | < 4.99 | 0.97 | < 5.00 | 0.985 | < 5.00 | 0.936 | < 4.70 | 0.81 | 4.94

From the supplement of paper PMC4967469
